Source: PubChem BioAssay AID488969 (Vanderbilt High Throughput Screening Facility, 2010)
Over roughly 110,000 compounds, “z-score” has its median near -0.1; the highest 2% begin near 2. This is one part of the list. Active and inactive are the calls of the source.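 Rule for the calls: active = z-score in the third read window above 3 or below -3; inactive = the rest.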

Biological target: Metabotropic glutamate receptor 8 (Rattus norvegicus) (UniProt P70579)
Assay: mGluR8 Gi/Go-coupled signaling modulation – cell-based, rat, thallium flux, HTS, primary screen (AID 488969)
Settings: HEK293 rat mGluR8, GIRK (G protein-gated inwardly rectifying potassium channel) thallium flux, FluoZin2; at 10 µM; stronger effect = higher value; submaximal glutamate (EC20) added with thallium

Chain of UniProt P70579 (P70579 whole entry, looked up): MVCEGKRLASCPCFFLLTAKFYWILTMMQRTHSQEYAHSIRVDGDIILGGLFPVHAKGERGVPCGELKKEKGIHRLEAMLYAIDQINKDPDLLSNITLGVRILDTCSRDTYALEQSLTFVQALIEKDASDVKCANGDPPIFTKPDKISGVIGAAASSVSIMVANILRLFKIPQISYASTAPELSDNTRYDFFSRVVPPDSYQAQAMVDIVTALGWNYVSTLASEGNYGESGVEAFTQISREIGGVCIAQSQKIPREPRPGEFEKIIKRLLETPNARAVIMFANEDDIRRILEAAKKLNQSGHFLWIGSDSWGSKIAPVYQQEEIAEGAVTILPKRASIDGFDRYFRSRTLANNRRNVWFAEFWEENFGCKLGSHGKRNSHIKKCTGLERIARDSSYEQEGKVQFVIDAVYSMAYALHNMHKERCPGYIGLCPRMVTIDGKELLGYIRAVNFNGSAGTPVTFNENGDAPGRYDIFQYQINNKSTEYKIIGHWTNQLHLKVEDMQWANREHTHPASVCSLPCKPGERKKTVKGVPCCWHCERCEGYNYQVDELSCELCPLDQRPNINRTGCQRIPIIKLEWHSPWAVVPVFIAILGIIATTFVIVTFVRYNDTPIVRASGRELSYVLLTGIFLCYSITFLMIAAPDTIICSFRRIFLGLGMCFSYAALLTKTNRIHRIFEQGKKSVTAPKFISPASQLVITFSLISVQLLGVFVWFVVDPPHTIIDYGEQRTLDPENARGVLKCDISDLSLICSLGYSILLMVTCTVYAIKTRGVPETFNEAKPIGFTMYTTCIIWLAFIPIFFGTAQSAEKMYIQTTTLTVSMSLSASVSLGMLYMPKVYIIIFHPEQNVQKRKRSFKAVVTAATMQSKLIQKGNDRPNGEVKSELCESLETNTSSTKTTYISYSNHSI

SMILES | z-score
CC1Cc2ccccc2N1C(=O)CSc1nnc2n1C(C)(C)Cc1ccccc1-2 (stereo not drawn) | -0.0372
O=C(CN1CCC(Cc2ccccc2)CC1)NC(=O)NCc1ccco1 | -0.495
COC(=O)c1sccc1NC(=O)c1csc(C)c1 | -0.827
C=CCNC(=O)COc1ccc(S(=O)(=O)Nc2ccc(OCC)cc2)cc1 | -0.591
O=C1C(=O)N(CCN2CCOCC2)C(c2ccccn2)/C1=C(/O)c1ccc(F)cc1 (stereo not drawn) | -0.519
O=C(COc1ncnc2cc([N+](=O)[O-])ccc12)N(CCc1ccccc1)Cc1ccccc1 | -0.0819
Cc1nc(CCN2C(=O)c3ccccc3C2=O)n[nH]1 | 0.233
Cc1ccc(CC(=O)Nc2nncs2)cc1 | 0.566
COc1ccc(CC(=O)Nc2c3c(nn2C(C)(C)C)CS(=O)C3)cc1 (stereo not drawn) | 0.0357
Cc1ccc(C(=O)Oc2oc(-c3ccco3)nc2C=Nc2ccccc2)cc1 | 0.176
CCN(C(=O)CN1CCN(c2ccc(O)cc2)CC1)c1c(N)n(Cc2ccccc2)c(=O)[nH]c1=O | 0.453
CCn1c(C(=O)N2CCC(C(=O)NCCCSC3CCCCC3)CC2)cc2sccc21 | 0.05
Cc1nn(C)cc1CN(C)C(=O)CC12CC3CC(CC(C3)C1)C2 | -0.362
CC(C)Cn1cnc2c(c(-c3ccccc3)c(-c3ccccc3)n2Cc2ccco2)c1=N | active: 3.58
C[C@H](NC(=O)c1ccccc1Cl)C(=O)OC(C(=O)Nc1cc(C(F)(F)F)ccc1Cl)c1ccccc1 (stereo partly drawn) | -0.215
O=C(N/N=C/c1c[nH]c2ccc(Br)cc12)c1ccn(Cc2ccc(Cl)cc2Cl)n1 | -0.336
Cn1c(=O)n(-c2cccc(Cl)c2)c(=O)c2c3c(sc21)COC(C)(C)C3 | 1.38
C/C(=N\N=C(c1ccccc1)c1ccccc1)c1cccs1 | -0.226
CCCCn1nnnc1SCC(=O)NNC(=O)C1CCCCC1 | 0.676
O=c1oc(-c2cccs2)nc2sc3c(c12)CCCC3 | 0.0131
CCC(CC)NCc1ccc(OC)cc1OC | 0.935
Cn1c(CCNC(=O)c2cccs2)nnc1SCC(=O)N1CCN(c2ccccc2)CC1 | -0.21
CCOC(=O)c1sc(=S)n(C)c1NC(=O)c1ccc(F)cc1 | -0.0851
COc1ccc(CCNC(=O)Cn2nnc(-c3ccc(N(C)C)cc3)n2)cc1OC | -0.0618
CCOC(=O)c1c(NC(=O)c2csc(C)c2)sc(C(C)=O)c1C | -0.0265
COc1ccc(/C=C/c2c([N+](=O)[O-])c(=O)n(C)c(=O)n2C)cc1OC | -0.0359
CCOC(=O)CSc1nnc(CNc2cccc(Cl)c2)n1C | 1.12

SMILES | z-score
O=C(Cc1ccc2c(c1)OCCO2)N1CCN(S(=O)(=O)c2cccc(Cl)c2Cl)CC1 | 0.22
Cc1cc(Cl)ccc1NC(=S)NCCCO | -0.166
CC(/C=N/NC(=O)c1cc(-c2cccnc2)nc2c1c(C)nn2-c1ccccc1)=C\c1ccccc1 | 0.285
CCCCc1cc2c(c(NC(C)=O)n1)c(=O)oc1ccccc12 | 0.0335
CCCCN=C(Nc1ccc(Cl)cc1)c1cccnc1 | -0.27
Cc1cccc(Cn2cnc3c(NS(C)(=O)=O)c(C)c(C)cc32)c1 | -0.78
COc1ccc(OC)c(S(=O)(=O)N2CCC(C(=O)Nc3cccc(C)c3C)CC2)c1 | 1.35
CCOC(=O)c1ccc(NS(=O)(=O)c2ccc(SC)cc2)cc1 | -0.12
CS(=O)(=O)N1CCC(C(=O)Nc2ccccc2)CC1 | 0.473
O=C(Nc1ccc(OCC(F)(F)C(F)F)c(C(F)(F)F)c1)c1ccc(Cl)cc1 | -0.245
O=C(NCC1COc2ccccc2O1)c1cc2ccccc2o1 (stereo not drawn) | -0.241
CCOC(=O)c1cn(Cc2c(C)c(C)c(C)c(C)c2C)nn1 | -0.301
Cc1cc2c3c(c1C)C1(C(=O)N3C(C)(C)CC2C)C(C#N)=C(N)OC2=C1C(=O)CC(C)(C)C2 (stereo not drawn) | 0.16
CCOCCCNC(=O)Cn1cc2c(n1)CCCCC2 | -1.3
CC(=O)c1c(C)[nH]c(C(=O)OCC(=O)Nc2ccc(Cl)cc2[N+](=O)[O-])c1C | -0.446
COC(=O)c1sc(NC(=O)c2cccc([N+](=O)[O-])c2)c(C(N)=O)c1C | -0.343
CCCCN(CCCC)c1ccc(C(=O)c2ccccc2C(=O)O)c(O)c1 | active: -3.18
O=C(COC(=O)c1ccc(S(=O)(=O)Nc2ccccc2)cc1)NCc1ccco1 | -0.454
CC1CC(C)CN(C(=O)c2ccc3c(c2)N(Cc2ccccc2)CCS3)C1 (stereo not drawn) | 0.328
CC(NC(=O)C1C2C=CC(C2)C1C(=O)O)c1ccccc1 (stereo not drawn) | 0.126
COc1ccc(NC(=O)C2CCCN(S(=O)(=O)c3cccnc3)C2)cc1 (stereo not drawn) | -0.432
CN(CC(=O)Nc1ccc(Cl)cc1)C(=O)c1cccc(S(=O)(=O)N(C)C)c1 | -0.335
COCCN(Cc1cc2ccc(C)cc2n2nnnc12)Cc1nnnn1C(C)(C)C | -0.471
CCN1CCN(C(=O)C(NS(=O)(=O)c2ccc3nc(C)sc3c2)C(C)C)CC1 (stereo not drawn) | -0.175
COc1ccc(CCN(Cc2cccs2)S(=O)(=O)c2ccc(S(=O)(=O)N3CCC(C)CC3)cc2)cc1OC | -0.101
Cc1ccc(C(=O)/C=C/c2ccc(-c3ccc(C)cc3)o2)cc1 | -0.0351
